From patent US20230218566A1, “Composition and Method for Treating Chronic Pain” (Zelira Therapeutics Operations Pty Ltd, priority 2020, published 2023)

Assay: Pharmacokinetics of THC and CBD after oral MC formulation (Example 3)
Conditions: high fat meal (about 60 g fat) 30 minutes before 2.5 mg dose versus 12 hour fast

| Compound | effect of high fat meal on t½ |
| --- | --- |
| C=C(C)[C@@H]1CCC(C)=C[C@H]1c1c(O)cc(CCCCC)cc1O [CBD, cannabidiol] | unchanged |
| CCCCCc1cc(O)c2c(c1)OC(C)(C)[C@@H]1CCC(C)=C[C@@H]21 [THC, Δ^9-tetrahydrocannabinol] | unchanged |
